# Measurements: the supplement of paper PMC3334620
# The full ranking holds about 33,000 sequences; the median of “E-score (-0.5 to 0.5)” is about -0.012, and the highest 2% start at about 0.29. This is one part of the list.
# Molecular target: T1, Ybr033w (UniProt P38073)
# T1 sequence: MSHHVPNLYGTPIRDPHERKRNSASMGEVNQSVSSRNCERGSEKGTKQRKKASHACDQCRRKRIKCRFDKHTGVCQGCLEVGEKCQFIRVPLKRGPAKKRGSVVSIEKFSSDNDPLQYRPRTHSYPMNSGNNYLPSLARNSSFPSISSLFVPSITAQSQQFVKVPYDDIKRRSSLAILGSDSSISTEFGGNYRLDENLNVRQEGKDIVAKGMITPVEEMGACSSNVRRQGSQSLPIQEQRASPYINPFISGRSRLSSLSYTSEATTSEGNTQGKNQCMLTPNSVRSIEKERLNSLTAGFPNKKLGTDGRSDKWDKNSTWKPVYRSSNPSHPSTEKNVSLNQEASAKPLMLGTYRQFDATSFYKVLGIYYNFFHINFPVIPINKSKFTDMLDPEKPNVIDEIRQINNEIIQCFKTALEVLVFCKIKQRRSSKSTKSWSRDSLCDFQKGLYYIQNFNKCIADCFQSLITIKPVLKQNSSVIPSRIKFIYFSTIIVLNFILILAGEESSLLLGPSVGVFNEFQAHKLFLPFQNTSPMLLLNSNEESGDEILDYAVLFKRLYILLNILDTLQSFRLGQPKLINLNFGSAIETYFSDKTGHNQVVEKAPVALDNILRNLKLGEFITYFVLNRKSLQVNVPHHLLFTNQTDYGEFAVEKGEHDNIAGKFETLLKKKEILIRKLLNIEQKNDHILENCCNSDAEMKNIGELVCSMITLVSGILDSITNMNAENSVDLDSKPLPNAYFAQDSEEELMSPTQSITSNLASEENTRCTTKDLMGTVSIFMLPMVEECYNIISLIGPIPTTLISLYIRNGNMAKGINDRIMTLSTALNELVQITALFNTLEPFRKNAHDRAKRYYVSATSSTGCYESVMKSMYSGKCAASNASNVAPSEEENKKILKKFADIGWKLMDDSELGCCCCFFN
# Assay: PBM E-score (8-mer binding enrichment) (E-score (-0.5 to 0.5)); higher = stronger / more preferred TF binding; most listed sequences are background and not binding sites
# Details: protein concentration: 200 nM; construct: GST-full length
# In short: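 Each ungapped eight-base word and its reverse complement, pooled, received an E-score from the Universal PBM Analysis Suite. Underlying scans, normalised with masliner, recorded fluorescent anti-GST bound to GST-tagged yeast transcription factors. These were applied at about 100-200 nM to universal all-10-mer Agilent arrays double-stranded by primer extension.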
row,Sequence,PBM E-score
1,ACCAATAA,0.107
2,CACCCAAA,0.0595
3,CTTTTGCA,0.127
4,AAATTCAG,0.204
5,CCATAGGA,-0.0978
6,TCCAGGAA,0.196
7,ACATTAAT,0.235
8,CTTCAATC,0.0931
9,CGGAGGGC,-0.243
10,ATAACCCA,0.128
11,GATTGTCA,0.0585
12,CCGTTGGA,-0.211
13,AGAGAGAG,-0.0462
14,AACCTAGC,0.0295
15,TGCGTCAA,-0.132
16,CAATTCCC,0.0996
17,CATTGCAC,0.106
18,TCCGACGA,0.14
19,CAAATAGA,0.241
20,CTCCTAGA,-0.0672
21,AGAACCCT,-0.0498
22,AGCTGTTA,0.101
23,GTACAAGA,-0.0515
24,AAGCTGTA,0.236
25,ATTGAGCA,-0.0103

row,Sequence,PBM E-score
1,ACCCTCGA,-0.193
2,AAAATGAC,0.15
3,ACCGTCGC,-0.169
4,ACGCATAC,0.00155
5,CGCAGTCA,-0.103
6,ACATGACT,-0.129
7,ACCTGTGG,-0.228
8,CTATTGCA,0.148
9,CTCAGGAG,-0.106
10,ACGGCTGC,-0.249
11,CACCAGTG,-0.134
12,CCATCGAA,-0.0709
13,CAGACTAG,-0.17
14,AGTTTCAC,0.133
15,CGCTGGAC,-0.0231
16,CAGTTCCC,-0.0612
17,ACTTCCGC,0.0114
18,AGAGTGGG,-0.154
19,ATAATCGA,0.205
20,CAGTTGGG,-0.25
21,AGCCGTCG,0.015
22,AGGGAAGA,0.0808
23,ACTGCGCG,-0.0114
24,AAATACTG,0.172
25,CACGGAGG,-0.17

row,Sequence,PBM E-score
1,CAAGTATA,0.138
2,CATACGGG,-0.246
3,ATGGCAGC,-0.147
4,CTCACTGC,0.0232
5,AGGAAAAC,0.12
6,TTTAAAAA,0.149
7,GACTATTA,0.208
8,ATAACGAT,0.0877
9,AGGGAATC,0.0653
10,ATGGATAA,0.259
11,CATGTAGG,0.0319
12,CTCTGTGA,0.0621
13,CGTACCAA,0.169
14,ACGTGATG,-0.0512
15,ACCACGAA,0.0666
16,GTGGACGA,-0.0473
17,AAACAGCG,0.0942
18,ATCCGAAC,0.057
19,AGCTTTCC,-0.0772
20,AGAGCCGA,-0.0115
21,AGGTGAGA,0.126
22,GGCTATTA,0.0685
23,CTAGTACA,0.14
24,GAAGCAAC,0.0192
25,CGCGGTGA,0.0155

row,Sequence,PBM E-score
1,CCCCCGGA,-0.275
2,ACCCTTAT,0.0185
3,AAAATTCG,0.279
4,AATCGCGC,0.00775
5,CCATTCCA,-0.015
6,CTGGGAGC,-0.3
7,AGGAGGGC,-0.196
8,GGCACCGA,-0.0891
9,CTGTGGGC,-0.143
10,CGGAGACA,0.13
11,CCATACCC,-0.175
12,CAACAGAG,0.0418
13,AAAACATC,0.0893
14,AACGCGTC,-0.106
15,GCGAAATA,0.12
16,TAGGAACA,0.316
17,GTTCCCCA,-0.174
18,AACGCGTT,-0.0853
19,GATGTGAA,0.192
20,AAACTTCC,0.068
21,GATATACC,0.131
22,TGGTATAA,0.21
23,AGATATCA,0.0755
24,GAACTTCC,0.16
25,CATAGCGC,0.0611

row,Sequence,PBM E-score
1,CATAACGC,-0.00058
2,TAAGCTCA,0.0366
3,AAGCTCAG,0.00297
4,AAACGAAA,0.113
5,CCACACGA,-0.143
6,CGTTTGAG,0.039
7,AATGTCCA,0.0106
8,CAAATTCA,0.178
9,CCACCCGC,-0.176
10,ACACCACT,0.205
11,AACAAGCT,0.129
12,GTTTGGGA,0.05
13,GTAATTGA,0.118
14,GACCGGGA,-0.178
15,CTAGCTAC,-0.156
16,ATGGCAAT,0.118
17,GATTTACC,0.21
18,AAGAGGAG,-0.138
19,ATACCTAG,0.105
20,CACCTTTA,-0.0505
21,GAGTTATC,0.0808
22,AGTGTGTA,-0.00209
23,CATCCCAC,-0.273
24,GATTCAAA,0.184
25,CAGAGCCG,-0.193

row,Sequence,PBM E-score
1,ACGCCCCG,-0.224
2,CCTGACAC,-0.0532
3,CGGCGCCA,-0.168
4,ACTAATGG,0.128
5,GATAGTGC,-0.0956
6,ACCGCATC,-0.139
7,AGATCACC,-0.102
8,CGCGATTC,0.0314
9,AACATTAA,0.224
10,AGTACAGA,0.0464
11,TACCGGGA,-0.0362
12,CTCATCTA,-0.0476
13,ACACTCGT,-0.075
14,CGAATCAG,0.0523
15,AGCTCACC,-0.209
16,ACAACCAT,0.297
17,AGTCCGAG,-0.0537
18,AGCACTGG,-0.157
19,TACTACTA,0.335
20,GATCCAAA,0.109
21,CCACTGAG,-0.237
22,CACACGGG,-0.256
23,AAGCAAAA,0.13
24,GCTTCATA,0.0157
25,CTGTGGGA,-0.125

row,Sequence,PBM E-score
1,CAAATACA,0.189
2,CTAATTTC,0.181
3,GCGATAGC,-0.17
4,TAGAGAAA,0.135
5,CAGCGGGC,-0.176
6,CAAACAGG,-0.131
7,CCGCCCCC,-0.256
8,CAGCTCCA,-0.105
9,AATACAAG,0.252
10,CTCGAAAC,0.185
11,AATCATGA,0.173
12,CCTGCTCC,-0.17
13,CCAAGTCA,-0.0141
14,AATAAAAG,0.0821
15,AGTTTGGC,0.0217
16,TCAAGACA,0.0336
17,AAAAACTT,0.237
18,ACCAGATG,-0.127
19,CCAGACCC,-0.251
20,CAGATTCG,-0.0294
21,AGGCGCCA,-0.185
22,GGTGACAC,-0.0557
23,CGGGCCCC,-0.3
24,CCGAGGGA,-0.19
25,GGGACTCA,-0.324

row,Sequence,PBM E-score
1,TCGCACGA,0.0241
2,ATTTCCTC,0.176
3,CATAGCGG,-0.175
4,CGCTCTGC,-0.0367
5,AACTCGTA,0.197
6,AAGTTTGC,0.179
7,CGAGAAAG,0.102
8,CGAGCAGA,-0.248
9,AACGCACA,0.0962
10,GCCGCGGC,-0.0537
11,ATCATGGA,-0.0246
12,AATGGAGC,0.00223
13,GGTCCGAC,-0.0839
14,GGGTTAAA,-0.0195
15,CTTCTGTA,0.121
16,CAGTTTCG,0.00585
17,GCGACCGA,0.0421
18,AACTTCCC,0.00652
19,ATCGATCC,-0.0468
20,CATGCGCG,-0.14
21,ATGCTTGG,-0.0632
22,CTACGAGA,0.0385
23,AGAAGAGA,0.0852
24,ATTTTTCA,0.212
25,AAGAAGTC,-0.061

row,Sequence,PBM E-score
1,CCTCCCCG,-0.171
2,AGGAATTA,0.223
3,CGATCAAA,0.12
4,TAACCGCA,0.144
5,ACCATGAC,-0.0754
6,AAGTCTAG,-0.142
7,ATTTGACC,0.0692
8,ACACAGTA,0.104
9,AAGACAAC,0.144
10,GCACCTGA,0.0618
11,GCAAGGAC,-0.155
12,GCGGAAAA,0.396
13,CTGATATC,0.0398
14,AATCTAAA,0.161
15,AGATGAGA,-0.0673
16,ACCCTGAT,-0.109
17,ACAGAACT,0.127
18,AACGATGG,-0.0425
19,CAGTAGTC,-0.192
